# Measurements as given in PubChem BioAssay AID1347417 (National Center for Advancing Translational Sciences (NCATS), 2020).
# Where “and” joins values, the source holds several entries; their conditions need not be identical. Equal entries are not always repeated. The campaign covered roughly 120,000 compounds. About 5,300 (4.4%) were called active. The inconclusive results got no clear call from the source; some entries with a clear call stand among them for comparison. Calls follow the shape of the dose curve; as a rule, active = well fitted inhibition curve with a large enough effect; inconclusive = small, poorly fitted or top-dose-only effect; inactive = no such curve, though single readings can be large or run the other way. Potencies of inconclusive entries are doubtful fits and often do not repeat.
# Assay: qHTS Primary assay for Inhibitors of Plasmodium falciparum Dd2 growth in vitro; also: nearly all actives have a fitted effect of over 65% in size;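 as to activity, negative = inhibition: plate controls were DMSO vehicle for no effect and reference drug for full effect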
# Conditions: P. falciparum Dd2 growth, SYBR Green, 72 h; activity, negative = inhibition: at 28.9 µM (top of the series) unless noted; series mostly up to 28.9 µM
# Outline: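 Infected erythrocytes (Dd2, 0.3% parasitemia, 2.5% hematocrit final) are added to compound in RPMI-1640/Albumax II medium, grown 72 h at 37C in low oxygen, then lysed with saponin/Triton-X containing SYBR Green and read by fluorescence.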
# Potency is read from the fitted curve at half-maximal effect; tags tell the direction and shape of the fitted curve.
SMILES,"activity, negative = inhibition",Potency,outcome
CCN(CC)C(=O)N1CCCN(S(=O)(=O)c2ccccc2)CCC(=O)NCC1,inactive: -2.65%,–,–
O=C(Cn1ncc2c3ccccc3n(Cc3ccccc3)c2c1=O)NCc1ccccn1,–,"inconclusive: 17.8 µM [inhibitor, single point]",–
O=C(COc1ccccc1)N1CCN(C(=O)c2nnn3c2COC(c2ccc(Cl)cc2)C3)CC1 (centres undefined),–,"inconclusive: 3.98 µM [inhibitor, single point]",–
COc1ccc(C(CNC(=O)c2oc3cc(Br)ccc3c2C)N2CCCCC2)cc1 (centres undefined),–,"inconclusive: 7.08 µM [inhibitor, partial curve]",–
O=[N+]([O-])c1ccc(S(=O)(=O)N2CCn3cccc3C2c2ccc(Br)cc2)cc1 (centres undefined),–,"inconclusive: 1.41 µM [inhibitor, full curve, poor fit]",–
COCC1CN(S(=O)(=O)c2ccc(OC)c(Cl)c2)CC12CCNCC2 (centres undefined),–,"inconclusive: 17.8 µM [inhibitor, single point]",–
CC(C)CCNC(=O)c1ccc2nc(Cc3ccccc3)oc2c1,–,"inconclusive: 17.8 µM [inhibitor, single point]",–
COc1ccc(-c2cc(C(F)(F)F)nc(SCC(=O)NC(C)c3ccccc3)n2)cc1 (centres undefined),–,"inconclusive: 17.8 µM [inhibitor, single point]",–
CC(C)(C)C(=O)N1CCC2(CC1)OCC(C(=O)NCc1ccco1)N2C(=O)c1ccc(F)cc1 (centres undefined),–,"inconclusive: 0.1 µM [inhibitor, single point]",–
CN1CCN(c2nc3c(s2)CN(C(=O)c2ccncc2)CC3)CC1,inactive: -11.6%,–,–
O=C(C1CCCC1)N1CCN(c2cc(-c3ccccc3)[nH]n2)CC1,–,–,inactive
Cc1ccc(CCNC(=O)c2ccc3c(c2)N(Cc2cccc(F)c2)C(=O)c2ccccc2S3)cc1,inactive: 2.44%,–,–
Cc1ccccc1CN1C(=O)C(C)N=C(c2ccccc2)c2ccccc21 (centres undefined),–,"inconclusive: 0.794 µM [inhibitor, full curve]",–
Cn1c([C@H]2CCN(C(=O)c3cnccn3)C2)nc2ccccc21,inactive: 11.7% [at 44.1 µM],–,–
Cc1cc(CNC(=O)Cc2ccc(-n3cnnn3)cc2)c2[nH]c(C)c(C)c2c1,–,"inconclusive: 10 µM [inhibitor, single point]",–
C[S+](=O)([O-])N1Cc2ccccc2CC2(CCCN2CC2CCCC2)C1 (centres undefined),–,"inconclusive: 10 µM [inhibitor, partial curve, poor fit]",–
O=C1Nc2ccccc2O[C@H]2C[C@@H]1N(Cc1ccnc3ccccc13)C2,–,"inconclusive: 11.2 µM [inhibitor, partial curve]",–
COc1cccc(CN2CC[C@H]3C(=O)NCCCCCCN(Cc4ccncc4)[C@@H]3C2)c1,–,"inconclusive: 10 µM [inhibitor, single point]",–
CCCSCCCNC(=O)Cn1c(-c2cccs2)cc2ccccc21,–,"inconclusive: 11.2 µM [inhibitor, single point]",–
Cc1cc(O)c(CN2CCN(c3ccccc3)CC2)c2oc(=O)cc(C)c12,–,"inconclusive: 11.2 µM [inhibitor, single point]",–
COc1ccc(OC)c(CN2CCN(Cc3ccccc3F)C(CCO)C2)c1 (centres undefined),–,–,inactive
O=C(Nc1c2c(nn1-c1ccc(Cl)cc1)CS(=O)(=O)C2)c1ccc(Br)cc1,–,"inconclusive: 10 µM [inhibitor, single point]",–

SMILES,"activity, negative = inhibition",Potency,outcome
CCC(C)NC(=O)C(NC(=O)c1ccc(OC)cc1)C1CCN(C(=O)c2ccccc2C)CC1 (centres undefined),–,"inconclusive: 0.158 µM [inhibitor, full curve]",–
COC[C@@H]1CN(S(=O)(=O)c2ccc(C)cc2)C[C@H]1c1nc(C)no1,inactive: 7.76%,–,–
Cc1cc(C)c(CNC(=O)c2nc(-c3cccc(F)c3)cc3c2ccn3C)c(=O)[nH]1,–,"inconclusive: 22.4 µM [inhibitor, single point]",–
CCCN1C(C(=O)c2ccccc2)=C(OC(=O)COc2ccc(C)cc2)c2ccccc2S1(=O)=O,–,"inconclusive: 11.2 µM [inhibitor, partial curve]",–
CCN1CCC2(Cc3ccccc3CN(C(=O)C3CCCC3)C2)C1 (centres undefined),–,active: 8.91 µM,–
CCCCOc1cccc(C2c3c(-c4cc(C)ccc4O)n[nH]c3C(=O)N2CCOC)c1 (centres undefined),–,"inconclusive: 11.2 µM [inhibitor, partial curve, poor fit]",–
CC(=O)NC1(C)CCN(Cc2ccc(-c3cccc(Cl)c3)cc2)C1 (centres undefined),–,"inconclusive: 10 µM [inhibitor, partial curve]",–
O=C([C@@H]1C[C@H](Oc2ccccc2)CN1C(=O)CCC1CCCC1)N1CCCC1,–,"inconclusive: 20 µM [inhibitor, single point]",–
O=C(C1CC1)N1CCC2(C1)C(=O)N(CCc1ccccc1)c1ccccc12 (centres undefined),–,"active: 6.31 µM and inconclusive: 2.24 µM [inhibitor, full curve, poor fit]",–
COc1cccc(NC(=O)C2CCCN(c3ncnc4onc(C)c34)C2)c1 (centres undefined),inactive: -19.7%,–,–
COCCNC(=O)Cc1cccn1-c1ccc(F)cc1,–,"inconclusive: 17.8 µM [inhibitor, single point]",–
O=C1NC(=NC2CCCCC2)C2(CCCN(Cc3ccsc3)C2)N1c1cc(F)cc(F)c1 (centres undefined),–,active: 7.94 µM,–
C[S+](=O)([O-])Nc1cccc(-c2nc(N3CCOCC3)cc3c2CN(CC2CC2)C3=O)c1,–,"inconclusive: 2.24 µM [inhibitor, full curve, poor fit]",–
CN(CCC1CCCCO1)C(=O)c1coc(COc2cccc(F)c2)n1 (centres undefined),inactive: -10%,–,–
CCOC(=O)C1(Cc2ccccc2C)CCCN(Cc2nccn2CC)C1 (centres undefined),–,active: 10 µM,–
Cc1nc(-c2ccc(F)cc2)n(Cc2nc(-c3ccc(OC(C)C)cc3)oc2C)c(=O)c1CCO,–,"inconclusive: 17.8 µM [inhibitor, single point]",–
COc1cccc(CC(=O)N2CCC3(CC2)NC(=O)N(c2ccc(F)cc2)N3)c1,inactive: -2.83%,–,–
O=c1[nH]c(N2CCOCC2)nc2c1CCN(Cc1cc(Cl)ccc1F)CC2,–,"inconclusive: 0.126 µM [inhibitor, full curve, poor fit]",–
COc1cccc(C(=O)Nc2ccc3nc(SCCOc4ccccc4)sc3c2)c1,–,"inconclusive: 7.94 µM [inhibitor, single point]",–
Cc1cnc(NC(=O)c2ccc3c(c2)OCCN(Cc2ncccn2)C3)s1,–,–,inactive [at 44.1 µM]
Cc1cccc(N2CCN(CCCNc3ncnc4onc(-c5ccc(F)cc5)c34)CC2C)c1 (centres undefined),–,"inconclusive: 17.8 µM [inhibitor, single point]",–
Cc1nccn1CCNC(=O)CCC[C@H]1NC[C@@H]2C[C@H]1CN(Cc1ccccc1)C2,–,active: 3.55 µM,–

SMILES,"activity, negative = inhibition",Potency,outcome
CC(C)CN(Cc1nnc2cc(-c3nc(-c4ccccc4)no3)ccn12)CC(C)C,inactive: -21.6%,–,–
O=C(Nc1ccc(F)c(F)c1)c1cc(S(=O)(=O)NC2CCCC2)ccc1F,inactive: 21.7%,–,–
CC(=O)N1CC2(CCN(C(=O)CCC(=O)O)CC2)Cc2ccccc21,inactive: -0.797%,–,–
O=C1NCc2ccccc2CC12CCCCN2CCCc1ccccc1 (centres undefined),–,"inconclusive: 8.91 µM [inhibitor, partial curve, poor fit]",–
Cc1cccc(-n2cc(CN(C)C(C)c3ccon3)c(-c3cccc(F)c3)n2)c1 (centres undefined),–,"inconclusive: 17.8 µM [inhibitor, single point]",–
Cc1ccc(NS(=O)(=O)c2ccc(-n3cccn3)cc2)c(Br)c1,inactive: 7.4%,–,–
O=C(c1ccc(-c2ncc3cnc(-c4cccc(F)c4)cn23)cc1)N1CC(O)C1,–,"inconclusive: 22.4 µM [inhibitor, single point]",–
Cc1ccc(NC(=O)N2CC=C(c3c[nH]c4ccccc34)CC2)cc1Cl,–,"inconclusive: 3.16 µM [inhibitor, full curve, poor fit]",–
COc1cccc(C(=O)N2CCC(n3cc(-c4nc(-c5ccccc5)no4)nn3)C2)c1 (centres undefined),–,"inconclusive: 3.98 µM [inhibitor, partial curve, poor fit]",–
Cc1cccc(OCC2(CNCc3ccc(F)cc3)C[C@@H](O)[C@@H](O)C2)n1 (some centres undefined),–,"inconclusive: 1.26 µM [inhibitor, partial curve]",–
Clc1cccc(Nc2ncnc3c2nc2n3CCCCC2)c1,–,"inconclusive: 17.8 µM [inhibitor, single point]",–
Cc1ccsc1CN(Cc1ccco1)c1cnc(S(C)(=O)=O)nc1C(=O)Nc1ccc(Cl)cc1,–,active: 4.47 µM,–
C=CCN(C)C(=O)[C@H]1CN2CCC1C[C@@H]2Cn1cc(-c2ccc(C(C)(C)C)cc2)nn1 (some centres undefined),–,"inconclusive: 1.12 µM [inhibitor, partial curve, poor fit]",–
O=C(c1cc2ccccc2[nH]1)N1CCC2(C1)NC(=O)N(Cc1ccc(Cl)cc1)C2=O (centres undefined),–,"inconclusive: 3.98 µM [inhibitor, single point]",–
COc1ccccc1-c1cnc2n[nH]c(-c3ccccc3)c2n1,–,–,inactive [at 44.1 µM]
O=C(Cc1ccccn1)N1CCC(c2nn(-c3ccc(Cl)cc3)c(=O)[nH]2)CC1,–,"inconclusive: 5.62 µM [inhibitor, partial curve, poor fit]",–
CN(C)c1ccc(C(=O)N2CC[C@@H](CC(=O)O)[C@@H](CCN3CCN(c4cccc(C(F)(F)F)c4)CC3)C2)cc1,–,"inconclusive: 12.6 µM [inhibitor, partial curve, poor fit]",–
CCc1ccc(S(=O)(=O)c2nnn3c2nc(N(CC)Cc2ccccc2)c2cc(Cl)ccc23)cc1,–,"inconclusive: 12.6 µM [inhibitor, partial curve, poor fit]",–
COc1ccccc1CNC(=O)c1noc(-c2ccc(C)cc2)n1,–,–,inactive
Cc1cc(C(=O)N2CCC(N3C(=O)C4(CCCC4)C3c3ccccc3)CC2)nn1C (centres undefined),–,"inconclusive: 8.91 µM [inhibitor, single point]",–
